The values below come from patent US20210379195A1, “METHODS FOR ALLOGENEIC HEMATOPOIETIC STEM CELL TRANSPLANTATION” (Magenta Therapeutics, Inc., priority 2018, published 2021).

B1: Ab58: anti-CD117 antibody, VH SEQ ID NO: 59, VL SEQ ID NO: 60 (antibody, V domains shown)
VH: [about 100 residues not written out]GPPTYHTNYYYMDVWGKGTTVTVSS
VL: DIQMTQSPSSVSASVGDRVTITCRASQGISSWLAWYQQKPGKAPKLLIYAASSLQSGVPSRFSGSGSGTDFTLTISSLQPEDFATYYCQQTNSFPYTFGGGTKVEIK
B2: Ab66: anti-CD117 antibody, VH SEQ ID NO: 79, VL SEQ ID NO: 80 (antibody, V domains shown)
VH: EVQLVESGGGLVQPGGSLRLSCAASGFTFSDHYMDWVRQAPGKGLEWVGRTRNKASSYTTEYAASVKGRFTISRDDSKNSLYLQMNSLKTEDTAVYYCAREPKYWIDFDLWGRGTLVTVSS
VL: [about 100 residues not written out]FGGGTKVEIK
B3: Ab67: anti-CD117 antibody, VH SEQ ID NO: 9, VL SEQ ID NO: 10 (antibody, V domains shown)
VH: EVQLVESGGGLVQPGGSLRLSCAASGFTFSDADMDWVRQAPGKGLEWVGRTRNKAGSYTTEYAASVKGRFTISRDDSKNSLYLQMNSLKTEDTAVYYCAREPKYWIDFDLWGRGTLVTVSS
VL: [about 100 residues not written out]FGGGTKVEIK
B4: Ab69: anti-CD117 antibody, VH SEQ ID NO: 99, VL SEQ ID NO: 100 (antibody, V domains shown)
VH: EVQLVESGGGLVQPGGSLRLSCAASGFTFVDHDMDWVRQAPGKGLEWVGRTRNKLGSYTTEYAASVKGRFTISRDDSKNSLYLQMNSLKTEDTAVYYCAREPKYWIDFDLWGRGTLVTVSS
VL: [about 100 residues not written out]FGGGTKVEIK
B5: Ab68: anti-CD117 antibody, VH SEQ ID NO: 89, VL SEQ ID NO: 90 (antibody, V domains shown)
VH: EVQLVESGGGLVQPGRSLRLSCTASGFTFSDHDMNWVRQAPGKGLEWVGRTRNAAGSYTTEYAASVKGRFTISRDDSKNSLYLQMNSLKTEDTAVYYCAREPKYWIDFDLWGRGTLVTVSS
VL: [about 100 residues not written out]FGGGTKVEIK

The target in the assay is CD117 (Homo sapiens, UniProt P10721). Nature of the assay: In vitro stem cell factor (SCF)-dependent cell proliferation assay (neutral vs antagonist). In kind it is cell-based. On the set-up: endogenous in cells; host or cells: CD34+ cells dependent on SCF. From the text: Neutral antibodies can be identified using, for example, an in in vitro stem cell factor (SCF)-dependent cell proliferation assay. In an SCF dependent cell proliferation assay, a neutral CD117 antibody will not kill CD34+ cells that are dependent on SCF to divide, as a neutral antibody will not block SCF from binding to CD117 such as to inhibit CD117 activity.
Chain of CD117 (P10721 26-976): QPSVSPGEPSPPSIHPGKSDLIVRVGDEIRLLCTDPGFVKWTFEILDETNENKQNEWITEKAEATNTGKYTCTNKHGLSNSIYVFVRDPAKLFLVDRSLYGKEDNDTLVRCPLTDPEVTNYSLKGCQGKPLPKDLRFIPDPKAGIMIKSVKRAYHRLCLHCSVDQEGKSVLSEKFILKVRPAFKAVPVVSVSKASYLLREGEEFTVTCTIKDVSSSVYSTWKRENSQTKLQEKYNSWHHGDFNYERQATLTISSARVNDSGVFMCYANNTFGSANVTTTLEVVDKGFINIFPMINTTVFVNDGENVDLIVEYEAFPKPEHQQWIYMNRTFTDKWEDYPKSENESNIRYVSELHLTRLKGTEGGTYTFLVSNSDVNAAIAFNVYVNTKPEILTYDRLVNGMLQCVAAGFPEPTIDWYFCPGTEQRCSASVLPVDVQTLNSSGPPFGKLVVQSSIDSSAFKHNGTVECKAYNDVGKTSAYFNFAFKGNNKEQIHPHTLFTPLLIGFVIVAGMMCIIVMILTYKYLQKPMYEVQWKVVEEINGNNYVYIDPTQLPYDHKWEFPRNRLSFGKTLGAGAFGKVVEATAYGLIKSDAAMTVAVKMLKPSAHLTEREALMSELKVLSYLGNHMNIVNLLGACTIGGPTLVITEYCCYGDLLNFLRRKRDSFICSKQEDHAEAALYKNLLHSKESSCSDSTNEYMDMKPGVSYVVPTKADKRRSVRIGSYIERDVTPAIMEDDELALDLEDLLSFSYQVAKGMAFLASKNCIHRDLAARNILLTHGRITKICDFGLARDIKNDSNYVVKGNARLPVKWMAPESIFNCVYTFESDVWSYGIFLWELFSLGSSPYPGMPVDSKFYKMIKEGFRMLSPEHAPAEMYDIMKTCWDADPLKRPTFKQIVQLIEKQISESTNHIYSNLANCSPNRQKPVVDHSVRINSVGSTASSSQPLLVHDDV
Regarding B1, the “effect on CD117 activity (neutral or antagonist antibody)” value was “neutral”. With B2, the “effect on CD117 activity (neutral or antagonist antibody)” value is “neutral”. Next, B3: “neutral”; B4: “neutral”; B5: “neutral”.
